Measurements taken from the RNAGym collection of RNA variant scans (doi:10.7554/elife.90254).
Read counts are not given, so values of variants with three or more changes are uncertain.

B1: LINE1-mini (parent)
chain: GGCAGAGCUCAACACAGCGUGGCAAAGUGGCUGUGGCUAGACUGCC

Variants of: B1
Assay: self-cleavage, relative activity (ratio to wild type); higher = more cleavage; in vitro, sequencing; the parent is a self-cleaving ribozyme

| Variant | self-cleavage |
| --- | --- |
| U9A C10A U20G G36U | 0.03 |
| U9C G17C U43A | 0.02 |
| U9G A11U C15A | 0.01 |
| C8U U38C A41G | 0 |
| U9A C13A G36U | 0.16 |
| U9C C15A C42A | 0 |
| U9A C10G A12G | 0.01 |
| U9G A14G C23G | 0.06 |
| C8U U32C G35U | 0.08 |
| C8U U32C G35A | 0.26 |
| U9G A26C U43C | 0.02 |
| U9C C13U U20C C31A | 0.04 |
| U9C G29U U32A | 0.05 |
| U9A A16U C23G U43G C46A | 0.01 |
| U9G A14G G30U A39G | 0.1 |
| U9A G22U G30U | 0.25 |
| U9G A12U G17A A39C | 0.03 |
| U9A A16C G21U U28C U43C | 0.01 |
| U9A A11U A12U G19C G30A U34G | 0.02 |
| U9A A39U C46A | 0.18 |
| U9C C10G A11G C23G | 0.01 |
| U9C C13G G35C C37A | 0 |
| U9A G17A C37U | 0.03 |
| U9G A16U C23G G27U A41C | 0.05 |

| Variant | self-cleavage |
| --- | --- |
| U9A G19U G33C U38G G44A | 0.02 |
| U9C A11G U28G C45U C46A | 0.01 |
| U9A C18G G22A G33U A39C G44A | 0.02 |
| U9A A11C C23U | 0.02 |
| U9A U32G G35A | 0.22 |
| U9G A12G G27A G40A | 0.1 |
| U9A C18G G22U U32C G44A | 0.04 |
| U9G C10U G22U C37U | 0 |
| U9G C10G G21U | 0.03 |
| U9C C15U G19C C46A | 0.03 |
| U9A G27U U34A | 0.26 |
| U9A C10U C46U | 0.03 |
| U9A C10U C23U C42G | 0.01 |
| U9C U34G C37U | 0.02 |
| U9G A24G G27A | 0.13 |
| U9G A11U U28G G30C | 0.01 |
| U9C C31U G35U C37G C45U | 0 |
| U9C G21C U28A | 0.02 |
| U9C C10A G35U | 0.04 |
| U9G A12C G40U | 0.03 |
| U9C C15A A16C C23U | 0.04 |
| U9C A26C G35A A39G | 0.01 |
| U9C A11C C23A | 0.03 |
| U9C C13G A24C U28G G30U U32A | 0.01 |

| Variant | self-cleavage |
| --- | --- |
| U9A G27C G36C | 0.17 |
| U9C C13U A25U | 0.05 |
| U9A U20C G30U G36U C45U | 0.14 |
| U9A C10U G19C U28G U34C | 0.01 |
| U9C A16G G22C A24U U38A C46G | 0 |
| U9G A25G C45A | 0.1 |
| U9C G17A A24G A25C | 0.02 |
| C8U G27C A39G | 0.05 |
| C8U G27C A39U | 0.05 |
| U9C A25C G29A G35A | 0.02 |
| U9G A11U G21U G35U | 0.03 |
| U9A C10A A26U | 0.01 |
| U9A C10G C18G C31A | 0.02 |
| U9C U20G U32G G33A | 0.01 |
| U9A A11G C18A U20A G29C | 0.03 |
| U9C U32G U34C U43C | 0 |
| C8U U38C U43G | 0.05 |
| U9A G19U C45G | 0.29 |
| U9C A12C C13A C31G | 0.04 |
| U9C C15U C18A G36U G40C | 0.01 |
| U9A A14C C18A C31G | 0 |
| U9A A24G U38A A41C C42U | 0.04 |
| C8U G27C U28G | 0.06 |
| C8U U20C C42U | 0.1 |

| Variant | self-cleavage |
| --- | --- |
| U9A U20A A25U U28C G29A G36C C46A | 0.25 |
| U9C A14C C18U | 0.01 |
| U9A A14G C31U C42U | 0.01 |
| U9G C10U G21U A25G | 0.01 |
| U9G C10U U20A U28A | 0.02 |
| U9C G30C A39U C42G G44A C45A | 0.01 |
| C8U G40C G44A | 0.14 |
| U9G A26G C42A | 0.07 |
| U9C C23G C31G G33C C37G U38G C46A | 0 |
| U9A A12U C46A | 0.27 |
| U9C G19U C23A C42A | 0.06 |
| U9G A16G U20A G30A | 0.03 |
| U9A G17A G19A | 0.05 |
| U9G A11C C15G G27C C46U | 0.02 |
| C8U G30C U32A C46A | 0.16 |
| U9C C13A C15A | 0.02 |
| U9A C31U A41C | 0.04 |
| U9C A11U G35U G36U A39G | 0 |
| U9A A11G C23G G30U | 0.02 |
| U9A G17A G27C | 0.06 |
| C8U G27C C31A | 0.14 |
| U9A C37U U38A | 0.32 |
| U9A C23U G44A C45G | 0.33 |
| U9A C23A A25U C42G | 0.06 |

| Variant | self-cleavage |
| --- | --- |
| U9C A12G U20A A41C | 0.01 |
| U9G A14U G27C U28A G35C | 0.01 |
| U9C G27A C42A | 0.09 |
| U9A C42G U43G | 0.18 |
| U9C A11G G40U C45G | 0.01 |
| U9C C15G G21U G27A U28G G35C C42G | 0.01 |
| U9A C18U A25U | 0.07 |
| U9C A24C G30A G36A A39U | 0.03 |
| U9A A11C G35A | 0.01 |
| U9A C13U C31G U34G G36C C37A U38C C42U | 0.1 |
| U9A A12C A24G | 0.03 |
| U9C C10U A12U A16C A24G | 0.01 |
| U9A G17C C37G | 0.05 |
| U9C A16G G40C | 0.01 |
| U9G A12C A16U G19C G22A | 0.02 |
| U9C A16G G19U G27U G36A | 0.01 |
| U9C G21A A25U | 0.01 |
| U9G C13A G33A | 0.06 |
| U9C C15G C18G C45A | 0.01 |
| U9A C10A C15A A39C | 0.03 |
| U9C G17A U20A U32A C46A | 0 |
| U9A A12U C31U | 0.04 |
| U9C G40C C46G | 0.01 |
| U9G C10A A16G U20G C42G | 0.01 |

| Variant | self-cleavage |
| --- | --- |
| U9C C10U C13A A16G U34G C42U | 0 |
| U9C A14C U34G | 0.01 |
| U9G A12U A16C G22A U32A C45U | 0.01 |
| U9G C10A A12C C13U G21C | 0.03 |
| U9A A16C C31G U38C | 0.05 |
| U9A G22U U28A | 0.05 |
| U9A A25U U34G | 0.03 |
| U9A A16U A24U C45G | 0.02 |
| U9A G17U C42U | 0.05 |
| U9G A14G U28G G30U | 0.04 |
| C8U G35C G36U | 0.05 |
| U9A C15A G35A G44U | 0.21 |
| U9G A16C A25C | 0.09 |
| U9C C15A C18G C23U | 0.03 |
| U9C G17U U20A G22C G33A | 0 |
| U9C A11U C18A C37U G40U | 0.03 |
| U9A C18A U28C G30U | 0.07 |
| U9G C10G U38C | 0.03 |
| U9A G19C G44C | 0.03 |
| C8U U9C C31U A39C | 0.03 |
| C8U G29C C45U C46A | 0.02 |
| U9A A16U U20C C37U C45A | 0.08 |
| U9A A16G A24U G27U | 0.03 |
| U9C U20A C31U G36U U38C U43A | 0 |

| Variant | self-cleavage |
| --- | --- |
| U9G A25C G29C U34A A39U | 0.05 |
| U9A A12U C23U C37U | 0.01 |
| U9A G17A A26U G30A G40U | 0.06 |
| U9C G19U C23G G30A | 0.02 |
| U9C C13G C31A | 0.02 |
| U9A C23G G30C | 0.03 |
| U9C A14G G22U | 0.04 |
| U9C G19U C37A A41G | 0.01 |
| U9A C15A G27U U38G | 0.02 |
| C8U U9A A11C A16U | 0.02 |
| U9C G22U A41G G44A | 0.02 |
| U9A C10U A16C C18G C31U C42U | 0.01 |
| U9A G29U C31U | 0.05 |
| U9G A14U G21A A25C C31U | 0.01 |
| U9A C31G C42U | 0.05 |
| U9C G22A G27U G44U | 0.03 |
| U9A G21U G35A G40C C46A | 0.07 |
| U9C G19U C23U A39U C45G | 0.01 |
| U9C A16C C42U | 0.01 |
| U9A G17A G44A | 0.15 |
| U9A A25U A39G G40C | 0.03 |
| U9A G17A C23U A24C U38A | 0.1 |
| U9C C18A G35U | 0.05 |
